*1 amine or outer side, *2 acyl side, *3 side chain or, on linkers, in order; H or OH if unused. Where a SMILES comes first, the peptide text is derived from it. [ ]: non-standard residue; d: D form. The star is where a group is joined. ξ: configuration not given here. Pro(3R,4S-CMe2) = CC1(C)[C@@H]2[C@@H](C(=O)O)NC[C@@H]21; X83 = C[C@H]1C[C@@H]1[C@H](N[*:1])C(=O)C(=O)[*:2]; Leuψ(COCO) = CC(C)C[C@H](N[*:1])C(=O)C(=O)[*:2]; ξPhg(3,5-(OMe)2) = COc1cc(OC)cc(C(N)C(=O)O)c1; Pro(3R-Ph) = O=C(O)[C@H]1NCC[C@@H]1c1ccccc1; X95 = O=C(C(=O)[*:2])[C@H](Cc1ccccc1)N[*:1]; Morpholine(3S-CO) = O=C(O)[C@@H]1COCCN1; Pro(4,4-Me2) = CC1(C)CN[C@H](C(=O)O)C1; X19 = CCC[C@@H](N[*:1])C(=O)C(=O)[*:2]; X12 = CCC[C@H](N[*:1])C(=O)C(=O)[*:2]; ξPhg(3-OMe) = COc1cccc(C(N)C(=O)O)c1; Isobutyloxycarbonyl = CC(C)COC(=O)*; ξPhg(3-Cl) = NC(C(=O)O)c1cccc(Cl)c1; X4 = CCCCC(N[*:1])C(=O)C(=O)[*:2]; ξPhg(3-F) = NC(C(=O)O)c1cccc(F)c1; Hyp = O=C(O)[C@@H]1C[C@@H](O)CN1; NMeChg = CN[C@H](C(=O)O)C1CCCCC1; X2 = CCCC(N[*:1])C(=O)C(=O)[*:2]; Chg = N[C@H](C(=O)O)C1CCCCC1; Phg = N[C@H](C(=O)O)c1ccccc1; ξPhg = NC(C(=O)O)c1ccccc1; tBu = CC(C)(C)*
target: HCV NS3/NS4A protease (strain 1a) (Hepatitis C virus genotype 1a, UniProt P27958); assay: biochemical; settings: Compounds prepared by Solid Phase Synthesis, Table 3; read-out: Ki* CLASS

SMILES	Ki
CCCC(NC(=O)[C@@H]1C[C@@H](OC(C)(C)C)CN1C(=O)[C@@H](NC(=O)OCC(C)C)C1CCCCC1)C(=O)C(=O)NCC(=O)NC(C(N)=O)c1cccc(Cl)c1 (stereo partly drawn) (Isobutyloxycarbonyl-[Chg][Hyp](tBu)[X2]G[ξPhg(3-Cl)]-NH2)	101 to 1000 nM
CCCC(NC(=O)[C@@H]1C[C@@H](OC(C)(C)C)CN1C(=O)[C@@H](NC(=O)OCC(C)C)C1CCCCC1)C(=O)C(=O)NCC(=O)NC(C(N)=O)c1cccc(F)c1 (stereo partly drawn) (Isobutyloxycarbonyl-[Chg][Hyp](tBu)[X2]G[ξPhg(3-F)]-NH2)	101 to 1000 nM
CCCC(NC(=O)[C@@H]1C[C@@H](OC(C)(C)C)CN1C(=O)[C@@H](NC(=O)OCC(C)C)C1CCCCC1)C(=O)C(=O)NCC(=O)NC(C(N)=O)c1cccc(OC)c1 (stereo partly drawn) (Isobutyloxycarbonyl-[Chg][Hyp](tBu)[X2]G[ξPhg(3-OMe)]-NH2)	101 to 1000 nM
CCCCC(NC(=O)[C@@H]1C[C@@H](OC(C)(C)C)CN1C(=O)[C@@H](NC(=O)OCC(C)C)C1CCCCC1)C(=O)C(=O)NCC(=O)N[C@H](C(N)=O)c1ccccc1 (stereo partly drawn) (Isobutyloxycarbonyl-[Chg][Hyp](tBu)[X4]G[Phg]-NH2)	101 to 1000 nM
CC(C)COC(=O)N[C@H](C(=O)N1C[C@H](OC(C)(C)C)C[C@H]1C(=O)N[C@@H](Cc1ccccc1)C(=O)C(=O)NCC(=O)N[C@H](C(N)=O)c1ccccc1)C1CCCCC1 (Isobutyloxycarbonyl-[Chg][Hyp](tBu)[X95]G[Phg]-NH2)	> 1000 nM
CCCC(NC(=O)[C@@H]1C[C@@H](O)CN1C(=O)[C@@H](NC(=O)OCC(C)C)C1CCCCC1)C(=O)C(=O)NCC(=O)NC(C(N)=O)c1cc(OC)cc(OC)c1 (stereo partly drawn) (Isobutyloxycarbonyl-[Chg][Hyp][X2]G[ξPhg(3,5-(OMe)2)]-NH2)	101 to 1000 nM

same assay, conditions: Table 4; HCV NS3/NS4A protease, spectrophotometric assay, 30° C., pH 6.5; read-out: Ki* Range

SMILES	Ki
CCCC(NC(=O)[C@@H]1CC(C)(C)CN1C(=O)[C@@H](NC)C1CCCCC1)C(=O)C(=O)NCC(=O)NC(C(=O)O)c1ccccc1 (stereo partly drawn) (H-[NMeChg][Pro(4,4-Me2)][X2]G[ξPhg]-OH)	> 1000 nM
CCC[C@H](NC(=O)[C@@H]1CC(C)(C)CN1C(=O)[C@@H](NC(=O)OCC(C)C)[C@@H](C)CC)C(=O)C(=O)NCC(=O)N[C@H](C(=O)N(C)C)c1ccccc1 (Isobutyloxycarbonyl-I[Pro(4,4-Me2)][X12]G[Phg]-NMe2)	1 to 100 nM
CCC[C@@H](NC(=O)[C@@H]1COCCN1C(=O)[C@@H](NC(=O)OCC(C)C)C1CCCCC1)C(=O)C(=O)NCC(=O)N[C@H](C(=O)N(C)C)c1ccccc1 (Isobutyloxycarbonyl-[Chg][Morpholine(3S-CO)][X19]G[Phg]-NMe2)	101 to 1000 nM
CCCC(NC(=O)[C@@H]1[C@@H]2[C@H](CN1C(=O)[C@@H](NC(=O)OCC(C)C)C1CCCCC1)C2(C)C)C(=O)C(=O)NCC(=O)N[C@H](C(=O)O)c1ccccc1 (stereo partly drawn) (Isobutyloxycarbonyl-[Chg][Pro(3R,4S-CMe2)][X2]G[Phg]-OH)	1 to 100 nM
CCCC(NC(=O)[C@@H]1[C@@H]2[C@H](CN1C(=O)[C@@H](NC(=O)OCC(C)C)C1CCCCC1)C2(C)C)C(=O)C(=O)NCC(=O)NC(C(=O)N(C)C)c1ccccc1 (stereo partly drawn) (Isobutyloxycarbonyl-[Chg][Pro(3R,4S-CMe2)][X2]G[ξPhg]-NMe2)	1 to 100 nM
CC(C)COC(=O)N[C@H](C(=O)N1C[C@H]2[C@@H]([C@H]1C(=O)N[C@H](C(=O)C(=O)NCC(=O)NC(C(=O)N(C)C)c1ccccc1)[C@H]1C[C@@H]1C)C2(C)C)C1CCCCC1 (stereo partly drawn) (Isobutyloxycarbonyl-[Chg][Pro(3R,4S-CMe2)][X83]G[ξPhg]-NMe2)	1 to 100 nM
CCC[C@@H](NC(=O)[C@@H]1[C@@H](c2ccccc2)CCN1C(=O)[C@@H](NC(=O)OCC(C)C)C1CCCCC1)C(=O)C(=O)NCC(=O)N[C@H](C(=O)N(C)C)c1ccccc1 (Isobutyloxycarbonyl-[Chg][Pro(3R-Ph)][X19]G[Phg]-NMe2)	101 to 1000 nM
CC(C)COC(=O)N[C@H](C(=O)N1CC(C)(C)C[C@H]1C(=O)N[C@@H](CC(C)C)C(=O)C(=O)NCC(=O)N[C@H](C(=O)N(C)C)c1ccccc1)C1CCCCC1 (Isobutyloxycarbonyl-[Chg][Pro(4,4-Me2)][Leuψ(COCO)]G[Phg]-NMe2)	1 to 100 nM
CCCC(NC(=O)[C@@H]1CC(C)(C)CN1C(=O)[C@@H](NC(=O)OCC(C)C)C1CCCCC1)C(=O)C(=O)NCC(=O)NC(C(=O)N(C)C)c1ccccc1 (stereo partly drawn) (Isobutyloxycarbonyl-[Chg][Pro(4,4-Me2)][X2]G[ξPhg]-NMe2)	1 to 100 nM
CCCC(NC(=O)[C@@H]1CC(C)(C)CN1C(=O)[C@@H](NC(=O)OCC(C)C)C1CCCCC1)C(=O)C(=O)NCC(=O)NC(C(=O)OC)c1ccccc1 (stereo partly drawn) (Isobutyloxycarbonyl-[Chg][Pro(4,4-Me2)][X2]G[ξPhg]-OMe)	1 to 100 nM
CCCC(NC(=O)[C@@H]1CC(C)(C)CN1C(=O)[C@@H](NC(=O)OCC(C)C)C1CCCCC1)C(=O)C(=O)N[C@@H](COC)C(=O)N[C@H](C(=O)O)c1ccccc1 (stereo partly drawn) (Isobutyloxycarbonyl-[Chg][Pro(4,4-Me2)][X2]S(Me)[Phg]-OH)	1 to 100 nM
CCCC(NC(=O)[C@@H]1CC(C)(C)CN1C(=O)[C@@H](NC(=O)OCC(C)C)C1CCCCC1)C(=O)C(=O)N[C@@H](CO)C(=O)N[C@H](C(=O)O)c1ccccc1 (stereo partly drawn) (Isobutyloxycarbonyl-[Chg][Pro(4,4-Me2)][X2]S[Phg]-OH)	101 to 1000 nM

Source: US7592316B2, “Peptides as NS3-serine protease inhibitors of hepatitis C virus” (Schering Corporation, priority 2000, dated 2009)
